# The source gives no read counts; variants with many changes may rest on few reads.
# B1: OR4K15 (parent)
# chain: GUUAACGGUCAUAGGCCAUGGAAACUAGGAGCACCAUUUCGCUGCCAGUGAAGAAAUGAACAAAGAAAAUCUGGGCCAGGCAGGCAUCAAAAGAAAUAGUCUUGCGCUCAACCAGAAAGUCUGUAAUCAUUUUAAGGGUA
# Variants of: B1
# Test: self-cleavage, relative activity (ratio to wild type); higher = more cleavage; in vitro, sequencing; the parent is a self-cleaving ribozyme
row,Variant,self-cleavage
1,A13G U72C A111G,0.11
2,U12A A56G A89G A126C,0.85
3,G15C C35U A60G A118G U132A,0.47
4,G14U A22U A52G,2.47
5,U12G A51G U124C U131C,0.67
6,A13U U39C G80U A111G A129G,0.01
7,A13U U37C C88U,0.76
8,U12A U19C A23G U38C U49A A51U A59U U127C U131C,0.9
9,A13U U72C U103C A116G A126G U130C,0.01
10,A13G A24G C40U U103C,0.46
11,A13C A62G A91G A94C,0.45
12,U12C G53A U124C,0.47
13,G14A A91G U124C U127C,0.32
14,G14C U38C A90G U100C A118G,1.92
15,A13G C77U A82U U108A,0.11
16,G15U A18G U39C A111G U131C,0
17,U12C A47G A52G A56G A91G A92U U103C,0.38
18,U12A A64G C81U A110G U130A,0.09
19,A13G U102G A110G U120C G123A,0
20,U12A U43A A92U,0.21
21,U12C A18G A66G A68G A92G,1.17
22,A13U U39A A66G A110G,0.27
23,A13U A36G A135U,2.35
24,G14A U102C U132A A135U,2.37

row,Variant,self-cleavage
1,U12A U43A A66G A126C A129G,0.6
2,G15A A23G A24G,1.7
3,A13U U57C A86G A96G U122C,0.42
4,G15A G29A C76U A96G A111G,0.02
5,A13U A22G A36G A69G A126G U130A,0.3
6,A13G G44A U120C,0.96
7,G15A A66G A94U A118U U130C,0.33
8,A13G A63G U127C,0.46
9,U12A U43A U133C,2.54
10,U12C A24G U39C A60U A67G,0.57
11,A13G A60G U120C,1.09
12,U12C A55U A118G,0.69
13,G14A A60U A63G C88U A95G A129G A135U,1.32
14,U12A A52U U120C,1.76
15,G14U A22G A51U,1.13
16,G14A G28A A56G G84C U87C,0.15
17,G15A G48A U102A A135G G136A,0.66
18,U12C U87A A92G U122A,0.86
19,G15A G58A A60U,1.24
20,U12C C17A U72C G80A A125G,0
21,A13G A22G A82G,0.13
22,G15A A33G U38C U49C A60G C71U,0.13
23,A13G A59U A89G,0.73
24,A13G U39C U57A A67G A86G A126G,0.91

row,Variant,self-cleavage
1,U12C A52G A67G,1.54
2,A13G U26C A89G A96U,0.79
3,A13U U57C A64G U103C U108C,0.02
4,U12C A56G U108C,0.04
5,A13G U38C U49A A82U A86G A126G G137A,0.13
6,A13G U130C G137U,0.33
7,U12C A67U A94G,2.44
8,U12C C40A G74A,0.25
9,A13G A23G A94G,1.27
10,U12C A24G A33U A55G A64G,0.94
11,U12A A68C C107G A129U U130C,0.03
12,A13G A94G A118G,0.63
13,U12C A59G C101U U130A,0.32
14,U12C U38C U108A,0.01
15,U12C U72A U139C,0.56
16,A13U A22U U70A,0.56
17,G15A A62G A91C A94U C128A,0.7
18,U12A U38C A64U A86U A135G,1.71
19,G15A A94G G119A,1.29
20,A13G U39C A67G A69G A111G U122C,0
21,A13U A90G U122C U130C,0.92
22,U12C U39C U102A,1.25
23,U12C A23U A94G U100C U131A,2.02
24,A13G A33G A59G A69G,0.65

row,Variant,self-cleavage
1,U12C A118G U127C A140G,0.13
2,A13G A68G G80A A111U U122A,0.08
3,A13G A51G U57C A94G U127C,1.13
4,A13G U87A A91U A110G,0.04
5,U12A A68G A118G A126G,0.44
6,A13G A23G A86G U108A U139A,0.14
7,A13U U19G A96G U132C,1.17
8,U12G U38C A62G U130G,1.78
9,U12G U19C U87C A89G,0.44
10,A13G A22C A27U,0.95
11,G15A A118C U122C,0.49
12,U12C U57C A67G,1.59
13,A13G A30G A52U,0.55
14,U12C A95G U100C,1.28
15,U12C G31A U38C A56G G80A A82U,0.07
16,U12C G20U A66G U130C,0.62
17,A13G A129C U131C,0.69
18,U12A A56G G106A U130C,0.02
19,A13G A67G U127C,0.65
20,U12C A30G U108C,0
21,A13U A24C A89G,0.84
22,G14A U43C U49C A118G A129G,0.26
23,A13U A23G A125G,0.23
24,U12C A13G U102C,0.62

row,Variant,self-cleavage
1,U12C U43C A126U,0.54
2,A13G U39C U57A A118G,1.18
3,G15A A22G G80A C112U,0.01
4,U12A A92C U102C,2.04
5,A13U A24G A30G U57C U108A A134G,0.05
6,A13U A23G U37C A52G A116G,0.23
7,A13G U26C G48A A55G A56G U102C,1.55
8,U12C A13G A64G A117G,0.89
9,U12C U108A A116G,0.07
10,U12C A90G A111G A117G U120C,0.01
11,U12C A59U U100C,1.56
12,U12C U37C A51G A125G,0.27
13,A13G U103A A140G,2.53
14,U12C A66U A92G A95G,1.61
15,U12C A60G A69G A140G,1.31
16,U12C A51G A92C A118G,0.63
17,U12A A91G A116G G137C,0.27
18,U12C U43C U70C A111U A118G,0
19,U12C A27G A82U A89G U139A,0.2
20,A13G A47G A69U A95G,1.29
21,G14U A60U A82U U103A,0.72
22,A13U U49C A126G,1.24
23,G14A A66G U72C,0.19
24,G15C A62G A78U,0.42

row,Variant,self-cleavage
1,U12C A63G U87C A89G U97C,1.65
2,G15A A51G A54C G80A U108C U122C U124A,0
3,U12C A22U A68G U100A,0.8
4,A13G A18U A30G,0.11
5,A13C A69G U70C U127A,0.49
6,U12C A59G U72C U127C,0.13
7,U12A A91G A111U A140U,0.14
8,U12A A68G A91G,0.66
9,G14C C25U A56G U130C,1.31
10,U12C G48A A52G A55G A116G A126G,0.2
11,U12C A98G A114G A140G,0.07
12,U12C A51G A66G,1.16
13,G14A A59G A125G,0.56
14,G15A G41A A62U C81U U102C,0.47
15,A13G C46U A89C,1.47
16,A13G C32U A64G A118G,0.81
17,U12C A22G A55U G58U C88A,1.14
18,U12A U57A A89C,1.02
19,A13U A68G A69G,0.52
20,A13U A111G U127A,0.03
21,U12A A54G A63G U130C U132C,1.02
22,A13U A51U G93A A98U A111G,0.01
23,G15A A36G A67G U102A,0.85
24,A13G U49C C85U A94G C105A A135G,0.04

row,Variant,self-cleavage
1,U12C C81U A98U U122A U130C,0.17
2,U12A A54G U57A A111G,0.09
3,A13G U100C U133C,2.32
4,G14A A47G A56G A60G U87C,0.78
5,G14A A22U A62G A114G A116G,0.05
6,G15A A30G U39C C81U C88U A118U,0.26
7,U12C A30G G31U U97C U139A,0.49
8,A13G A27G A64G A118G,0.81
9,G15A A51G U102A,0.33
10,A13G U39A A92G U122C,1.08
11,G14U A23U U37C A56G,0.56
12,A13U A60G A64G A95G U127A,1.69
13,G15A A94G C109U,0.43
14,G14A U39A A90G,1.56
15,A13G A56C A59G A129G,0.42
16,A13G A55G A59G,1.49
17,U12A U37C C107U,0.02
18,U12A A117G A126U U131C,1.31
19,U12C A24C A47G A55G G115A G119A,0.07
20,U12G A27G U37A A89G G104A A118G,0.04
21,U12C A62G A86G,1.25
22,A13U A22G A47G A91G U100G U102C A126G,1.4
23,A13G A22G U87C U132A,1.57
